The campaign covered roughly 200,000 compounds. About 10 (0.005%) were called active. Inconclusive means that the source gave no clear call. Such entries were picked first, then a sample of the others. Calls follow the shape of the dose curve; as a rule, active = well fitted inhibition curve with a large enough effect; inconclusive = small, poorly fitted or top-dose-only effect, or effect the other way, or another doubt; inactive = no such curve, though single readings can be large or run the other way. A potency beside an inconclusive call is a rough fit, not a confirmed value.
Target: Lysosomal alpha-glucosidase (Homo sapiens) (UniProt P10253)
Experiment: qHTS Assay for Inhibitors of Human alpha-Glucosidase as a Potential Chaperone Treatment of Pompe Disease;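 as to activity change, negative = inhibition: plate controls were uninhibited enzyme wells for no effect and no-enzyme background for full effect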
Conditions: purified human GAA, 4-MU-alpha-glucoside fluorescence; activity change, negative = inhibition: at 76.9 µM (top of the series) unless noted
Outline: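 Enzyme (4 nM final) mixed with compound (up to 77 uM), then 4-MU-alpha-D-pyranoside (400 uM final) added; 20 min at room temperature, pH 5.0. Reaction stopped at pH 10, fluorescence read, AC50 derived by Hill fit.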
Potency is read from the fitted curve at half-maximal effect; tags tell the direction and shape of the fitted curve.

Activity change, negative = inhibition, inactive:
CN1CCc2cccc3c2[C@H]1Cc1ccc(O)c(O)c1-3 2.03% [at 15.4 µM]

Activity change, negative = inhibition, inconclusive:
CC(C)C1Nc2ccc(C(=O)O)cc2C2C=CCC21 (centres undefined) 15.9% [activator]
Cc1ccc(CN2C3CCCC2CC(NC(=O)c2ccc(C)cc2)C3)cc1 (centres undefined) 9.46% [activator]
Cc1ccc2cc(CN(CCCN(C)C)C(=S)NCc3ccccc3)c(=O)[nH]c2c1C 19.5% [activator]
O=C(CCn1nc(-c2ccccc2)c2ccccc2c1=O)Nc1cccnc1 16.8% [activator]
CSCCC(NS(=O)(=O)c1ccc(Cl)cc1)C(=O)OCC(=O)NC12CC3CC(CC(C3)C1)C2 (centres undefined) -16.9% [inhibitor]
Cc1nnc(SCC(=O)c2ccc(C(C)C)cc2)s1 12.4% [activator]
Nc1nc(N2CCOCC2)cc(=O)[nH]1 2.97% [activator]
CCn1c(C)[n+](CC)c2ccc(S(=O)(=O)N(C)C)cc21 13.3% [activator]
CN1CCN(c2ccc([N+](=O)[O-])cc2C(=O)Nc2ccccc2)CC1 -15.3% [inhibitor]
CC1CCCC(C)N1CCCNC(=O)c1cc2c(=O)n(C)c3ccccc3c2n1C (centres undefined) -15.8% [inhibitor]
CCC(C)(C)n1nnnc1C(c1cc(OC)ccc1OC)N1CCN(Cc2ccccc2)CC1 (centres undefined) 15.8% [activator]
Cn1cc(CCC(=O)N2CCCC(C(=O)c3cccc4ccccc34)C2)cn1 (centres undefined) 14.2% [activator]
COc1ccc(C2=NN(C(=O)CCCC(=O)O)C(c3cccs3)C2)cc1OC (centres undefined) 18.1% [activator]

Potency, inactive:
Nc1nc(N2CCN(C(c3ccccc3)c3ccccc3)CC2)n[nH]1
CCOc1ccc(NC(=O)c2ccccc2CO)cc1
COc1cc(C(C(=O)NC(C)(C)C)N(C(=O)CNC(=O)c2cccs2)c2ccccc2)cc(OC)c1OC (centres undefined)
COCCCn1c(-c2ccco2)nc2ccccc2c1=O

Potency, inconclusive:
COc1ccc2cc3cc(C(=O)NCCN4CCN(c5ccccc5F)CC4)oc3nc2c1 35.5 µM [activator, partial curve]
O=C(c1cccc(Cl)c1)N1CCC(=O)N(C(COCc2cccc(Cl)c2)Cc2ccccc2)CC1 (centres undefined) 50.1 µM [inhibitor, single point]
CCCCCc1cc(O)c2c(C)cc(=O)oc2c1 12.6 µM [inhibitor, single point]
O=C(CN1CCc2ccccc2C1)N1CCN(S(=O)(=O)c2ccccc2)CC1 50.1 µM [inhibitor, single point]
CCc1c(C)sc(NC(=O)c2cccs2)c1C(N)=O 11.2 µM [inhibitor, single point]
C=CCn1c(=O)[nH]c2cc(C(=O)N3CC=C(c4ccccc4)CC3)ccc2c1=O 50.1 µM [activator, single point]
C/C(=N\NC(=O)C1CC1c1ccccc1)c1ccc(C)s1 (centres undefined) 56.2 µM [inhibitor, partial curve, poor fit]
COc1ccc(-c2noc(C3CCCN(S(=O)(=O)c4cccc(Cl)c4C)C3)n2)cc1OC (centres undefined) 5.62 µM [inhibitor, full curve]
CCOc1ncccc1C(=O)Nc1nc(C(C)(C)C)cs1 35.5 µM [inhibitor, single point]
Cc1cc(C)c(S(=O)(=O)n2ccc(-c3ccc(OCCN(C)c4ccccn4)cc3)n2)c(C)c1 0.178 µM [inhibitor, full curve, poor fit]
CCNC(=S)N(Cc1ccco1)Cc1cc2cc(OCC)ccc2[nH]c1=O 11.2 µM [activator, partial curve, poor fit]
Cc1cc[n+](-c2nc3ccccc3nc2[N-]S(=O)(=O)c2ccccc2)cc1 7.94 µM [inhibitor, single point]
N#CC1=C(N)N(c2ccc(Br)cc2)C2=C(C(=O)CCC2)C1c1cccnc1 (centres undefined) 50.1 µM [inhibitor, single point]
Cc1c(O)ccc2c3c(c(=O)oc12)CCCC3 35.5 µM [activator, partial curve]
CC(C)C(OC(=O)c1cccs1)C(=O)NCc1ccco1 (centres undefined) 25.1 µM [inhibitor, partial curve, poor fit]
CC(C)N1CCN(Cc2ccc(C#CC(C)(C)O)cc2)CC1CCO (centres undefined) 1.78 µM [activator, full curve, poor fit]
CCCCCCc1ccc(-c2ncc(N)cn2)cc1 50.1 µM [inhibitor, partial curve, poor fit]
COc1ccc(C2C=C(C)Nc3nc(SC)nn32)cc1 (centres undefined) 20 µM [activator, partial curve]
CC1CN(C(=O)c2cc3c(=O)n4ccccc4nc3s2)CC(C)O1 (centres undefined) 35.5 µM [activator, partial curve]
Cc1cc(NC(=O)CSc2nc3ccccc3c(=O)n2Cc2ccccc2)no1 50.1 µM [inhibitor, single point]
O=C(CCCN1CCC(c2ccccc2)C1)c1ccc2c(c1)OCCO2 (centres undefined) 0.158 µM [inhibitor, full curve, poor fit]
COc1ccc(NC(=O)CN(C)Cc2c(F)cccc2Cl)cc1S(=O)(=O)N1CCCCC1 50.1 µM [inhibitor, single point]
CCN(CC)Cc1c(O)c(Cl)cc2c3c(c(=O)oc12)CCCC3 35.5 µM [activator, partial curve]
CC(C)(O[C@@H]1O[C@H](CO)[C@@H](O)[C@H](O)[C@H]1O)[C@H]1Cc2cc3ccc(=O)oc3cc2O1 35.5 µM [activator, partial curve]
Cc1cc(C)nc(NC(=O)c2cc(-c3ccc(C)s3)nc3ccccc23)c1 28.2 µM [activator, partial curve]
COc1cccc(CNC(=O)CCC2CCCN(C(=O)c3csc(C(C)C)n3)C2)c1 (centres undefined) 7.08 µM [inhibitor, single point]
CCNC(=O)NC(=O)C(C)OC(=O)C1CCN(S(=O)(=O)c2ccc(C)c(C)c2)CC1 (centres undefined) 6.31 µM [inhibitor, single point]
CCc1cccc2c(-c3csc(=NC)n3C)c[nH]c12 0.398 µM [inhibitor, full curve, poor fit]
COCC(=O)N1CCN(c2nc3ccccc3o2)CC1 50.1 µM [inhibitor, single point]
COc1ccc(Nc2ncc(C(=O)N3CCN(c4ccccc4OC)CC3)c3ccccc23)cc1 7.94 µM [inhibitor, single point]
CC(C)[C@H](NC(=O)c1cccc(S(=O)(=O)N2CCCC2)c1)c1nc2ccccc2[nH]1 50.1 µM [inhibitor, partial curve, poor fit]
O=C(c1ccccn1)N1CCN(S(=O)(=O)c2ccc(F)cc2)CC1 1.78 µM [inhibitor, full curve]
COCCn1c(-c2ccco2)nc2nc3ccccc3nc21 35.5 µM [activator, partial curve]
CCCC(C)C(=O)Nc1cc([N+](=O)[O-])ccc1F (centres undefined) 11.2 µM [inhibitor, single point]
CCOc1cc(/C=C2\C(=O)ON=C2C)ccc1OCc1ccccc1 7.94 µM [inhibitor, full curve]
CCOC(=O)CSc1nc(C)c2cc(OC)ccc2n1 25.1 µM [activator, partial curve]
CC(C)OC(=O)CSc1nc2c(c(C3CC=CCC3)c1C#N)CCC2 (centres undefined) 56.2 µM [inhibitor, partial curve, poor fit]
CCCCOc1ccc(CNC(=S)N/N=C/c2ccc(OC)c(OC)c2)cc1 15.8 µM [inhibitor, partial curve]
O=[N+]([O-])c1ccc(-n2cccc2/C=N/Nc2nc(N3CCCCC3)nc(N3CCCCC3)n2)cc1 12.6 µM [inhibitor, single point]
CCC(=O)Oc1ccc2c(c1)OC1(OC(C)=O)OC(C)CC1=C2C (centres undefined) 5.62 µM [activator, partial curve]
N#Cc1c(NCCCO)nc(-c2ccco2)c2c1CCCC2 31.6 µM [activator, partial curve]
COc1ccccc1CNC(=O)N[C@@H](Cc1ccccc1)C(=O)O 56.2 µM [inhibitor, single point]
COc1ccc(C(=O)Oc2cccc3cccnc23)cc1[N+](=O)[O-] 0.794 µM [activator, full curve, poor fit]
O=C1CCCc2ccccc2N1Cc1cccc(Cl)c1 5.01 µM [inhibitor, single point]
CCn1c(=O)cc(SCC(=O)N2CCOCC2)c2ccccc21 11.2 µM [inhibitor, single point]
O=C(OC1CCOC1=O)c1ccc(-c2nc3ccccc3s2)s1 (centres undefined) 35.5 µM [activator, single point]

— PubChem BioAssay AID1466 (National Center for Advancing Translational Sciences (NCATS), 2008)
